Several values for one entry are separate records, joined by “and”; a condition that tells them apart may be missing. Equal entries are not always repeated. Among all 280,000 compounds or so, about 540 (0.19%) were called active. The inconclusive results got no clear call from the source; some entries with a clear call stand among them for comparison. Calls come from the whole dose curve; as a rule, active = well fitted activation curve with a large enough effect; inconclusive = small, poorly fitted or top-dose-only effect; inactive = flat fitted curve, though single readings scatter. Potencies of inconclusive entries are doubtful fits and often do not repeat.
Experiment: Quantitative High-Throughput Screen for Regulators of Epigenetic Control; note: nearly all actives have a fitted effect of over 60% in size
Conditions: murine LDR cells, GFP reporter derepression, 30 h; series mostly up to 53.9 µM
How it was run: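 Reporter derepression read as number of fluorescent GFP-positive objects, 20-120 um in size, counted by laser-scanning cytometer. Mouse LDR line with an epigenetically silenced CMV-GFP locus; compound incubation 30 h, 37 C.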
Potency is the fitted concentration of half-maximal effect; tags give direction and shape of the fitted curve.

Structure (SMILES)	Potency
Cc1ccc(NC(=O)Cn2nnc(C(=O)NCc3ccc4c(c3)OCO4)c2N)cc1Cl	inactive
COc1ccc(Cn2c(=O)[nH]c3cc(C(=O)N4CCN(c5cc(Cl)ccc5C)CC4)ccc3c2=O)cc1	inconclusive: 35.5 µM [activator, single point]
COc1ccc(-n2cc(C(=O)c3ccc4ccccc4c3O)cn2)cc1	inconclusive: 20 µM [activator, single point]
C=C(C(=O)OC)C(NC(=O)OC)c1ccccc1 (configuration not stated)	inactive
Cc1ccc(C)c(NC(=O)Cn2c(=O)n(Cc3ccccc3)c(=O)c3oc4ccccc4c32)c1	inconclusive: 31.6 µM [activator, single point]
O=S(=O)(c1ccc(N2CCCC2)cc1)C(F)(F)F	inactive
C=CCSc1nc2sc3c(c2c(=O)n1CC)CCc1ccccc1-3	inactive
CCOc1cc(CNC(=O)Cn2c(-c3cccs3)cc3cc(F)ccc32)ccc1OC	inconclusive: 35.5 µM [activator, single point]
COc1ccc(/C=C/C(=O)NC(=S)NNC(=O)c2cnccn2)cc1	inactive
CCCCCC1CC(CC(=O)NC(=S)Nc2ccc([N+](=O)[O-])cc2)C(=O)O1 (configuration not stated)	inactive
Fc1ccccc1/C=C1\CCCC2=C1NC(=S)NC2c1ccccc1F (configuration not stated)	inactive
CN1CCN(CCNC(=O)Nc2ccc([N+](=O)[O-])cc2)CC1	inconclusive: 10 µM [activator, single point]
N#C/C(=C/c1ccc(N2CCOCC2)o1)c1ccc(Cl)cc1	active: 3.16 µM
O=C1OC(/C(=C\Nc2ccc(F)cc2F)[N+](=O)[O-])c2ccccc21 (configuration not stated)	inconclusive: 31.6 µM [activator, single point]
Cc1ccc(C(=O)NCc2ccc(F)cc2)cc1NC(=O)c1nsc2ccccc12	inconclusive: 35.5 µM [activator, single point]
S=c1[nH]nc(-c2ccccn2)n1/N=C/c1ccc(Cl)c(Cl)c1	inactive
COc1ccc(C2CC(c3ccc4ccccc4c3)=NN2C(=O)CN2C(=O)CCC2=O)cc1 (configuration not stated)	inactive
CC(C)(CNC(=O)C1CCCC1)CNC(=O)C1CCCC1	inconclusive: 25.1 µM [activator, single point]
CCOC(=O)C(NCCc1ccccc1F)(NC(=O)CC)C(F)(F)F (configuration not stated)	inactive
O=C(CBr)N1CCc2ccccc2C(c2ccccc2)C1 (configuration not stated)	inconclusive: 31.6 µM [activator, single point]
Cc1cccn2c(=O)c3cc(C(N)=S)c(=N)n(CCCOC(C)C)c3nc12	inconclusive: 31.6 µM [activator, single point]
Cc1noc(C(=O)N2CCN(c3ccc(F)cc3)CC2)c1Cl	inactive
Cc1ccc(/C(O)=C/c2nc3cc(C)ccc3oc2=O)cc1	inconclusive: 35.5 µM [activator, single point]

Structure (SMILES)	Potency
Cc1ccc(-n2c([S-])c(C(=O)Nc3ccc(OC(F)F)cc3)[n+]3ccc(C(=O)NCCO)cc23)cc1C	inconclusive: 28.2 µM [activator, single point]
Cc1ccc2nc(NCc3ccc(F)cc3)c3nncn3c2c1	inconclusive: 25.1 µM [activator, single point] and inconclusive: 31.6 µM [activator, single point]
CC(C(Sc1ccccc1N)c1ccccc1)[N+](=O)[O-] (configuration not stated)	inconclusive: 4.47 µM [activator, single point]
COc1ccc2ncc3c(-c4ccc(C)c(C)c4)nn(CC(=O)NC4CCCC4)c3c2c1	inconclusive: 35.5 µM [activator, single point]
CCOC(=O)c1ccc(N2C(=O)C3C(C2=O)C(C(=O)c2ccc(Cl)cc2)N2CCCC32)cc1 (configuration not stated)	inconclusive: 31.6 µM [activator, single point]
CC(=O)O[C@H]1C(=O)[C@@]2(C)[C@H]([C@H](OC(=O)c3ccccc3)[C@]3(O)C[C@H](OC(=O)[C@H](O)C(NC(=O)c4ccccc4)c4ccccc4)C(C)=C1C3(C)C)[C@]1(OC(C)=O)CO[C@@H]1C[C@@H]2O (some centres not stated)	inactive
NC1(C(=O)O)CC(C(=O)O)C1 (configuration not stated)	inactive
O=[N+]([O-])c1cc(Cl)ccc1Sc1cccc2cccnc12	inconclusive: 28.2 µM [activator, single point]
CC1(C)Cc2ccccc2C(NNC(=O)c2ccccn2)=N1	inconclusive: 35.5 µM [activator, single point]
CCC(Sc1nc2ccccc2c2nc(-c3ccccc3)nn12)C(=O)Nc1cccc(OC)c1 (configuration not stated)	inconclusive: 35.5 µM [activator, single point]
CC1=NN(C(=O)Cn2ccc([N+](=O)[O-])n2)C(O)(C(F)(F)F)C1 (configuration not stated)	inconclusive: 14.1 µM [activator, single point]
N#C/C(=C\c1ccc(Sc2ccccc2)o1)c1nc2ccccc2[nH]1	inconclusive: 28.2 µM [activator, single point]
COc1ccc(-c2cc3cc(OC)c(OC)cc3c(C)n2)cc1C	inconclusive: 20 µM [activator, single point]
CCOC(=O)Cn1c(=O)oc2cc(S(=O)(=O)N3CCN(c4ccc(C(C)=O)cc4)CC3)ccc21	inconclusive: 25.1 µM [activator, single point]
CCOC(=O)/C(C#N)=C\c1ccc(OC)c(OC)c1	inconclusive: 17.8 µM [activator, single point]
O=S(=O)(NCC(Nc1ccc(Cl)cc1)c1ccccc1)c1ccccc1 (configuration not stated)	inconclusive: 12.6 µM [activator, single point]
COC(=O)/C=C/COc1ccccc1[N+](=O)[O-]	inactive
CCOC(=O)N1CCC(N(CCCOC)C(=O)Nc2ccc(CC)cc2)CC1	inconclusive: 35.5 µM [activator, single point]
OCc1ccnc2c(O)cccc12	inconclusive: 25.1 µM [activator, single point]
COc1cccc2cc(-c3nnc(Nc4ccccc4C)s3)c(=O)oc12	inconclusive: 31.6 µM [activator, single point]
CCOc1ccc(-c2cc3nc(C4CCN(C(=O)OC(C)(C)C)CC4)c(C(=O)Nc4ccc(C(=O)OC)cc4)cn3n2)cc1	inconclusive: 31.6 µM [activator, single point]
O=C(c1ccco1)N1CCN(c2cc(C(F)(F)F)nc3ncnn23)CC1	inconclusive: 5.62 µM [activator, single point]
COC(=O)c1ccc(Cn2c(=O)cc(C)c3c(C)nn(C)c32)cc1	inactive

Structure (SMILES)	Potency
CCN1c2ccccc2NC2N=C(OC)C(c3ccccc3)C21 (configuration not stated)	inactive
CN(C)S(=O)(=O)c1cccc(NC(=S)N/N=C/c2ccco2)c1	active: 3.55 µM
COc1cccc(F)c1C(C[N+](=O)[O-])c1c(N)n(C)c(=O)n(C)c1=O (configuration not stated)	inconclusive: 5.62 µM [activator, single point]
COc1ccc(/C=C/C(=O)OCC(=O)c2ccc3c(c2)NC(=O)CO3)cc1	inactive
O=C(N/N=C/c1ccc([N+](=O)[O-])o1)c1cn(-c2ccccc2)nc1-c1ccc(F)cc1	inconclusive: 22.4 µM [activator, single point]
O=C(OCCN1C(=O)c2cccc3c(N4CCOCC4)ccc(c23)C1=O)c1ccc(Cl)cc1	inconclusive: 35.5 µM [activator, single point]
Cc1ccc(C(=O)Nc2cccc(C(=O)OCc3cc(=O)n4c5c(sc4n3)CCCC5)c2)cc1	inconclusive: 35.5 µM [activator, single point]
CCOc1ccc(NC(=O)Cn2c(=O)n(CCc3ccccc3)c(=O)c3c4c(sc32)CN(C(C)=O)CC4)cc1	inconclusive: 35.5 µM [activator, single point]
C=CCNC(=O)/C(C#N)=C/c1ccc2c(c1)OCCO2	inactive
Cc1cc(N2CCCC2)ccc1/C=C1\NC(=S)N(C)C1=O	inconclusive: 8.91 µM [activator, partial curve]
O=c1[nH]c2ccc(N=Cc3c(O)ccc4cc(Br)ccc34)cc2[nH]1	inconclusive: 25.1 µM [activator, single point]
Cc1ccc(CNC(=O)C(C(C)C)N2Cc3ccccc3C2=O)cc1 (configuration not stated)	inactive
CCOC(=O)c1cccc(NC(=O)Cn2c(=O)nc(-c3ccccc3)c3ccccc32)c1	inconclusive: 35.5 µM [activator, single point]
Cc1noc(/C=C/c2ccco2)c1S(=O)(=O)N1CCC(C(=O)Nc2ccc(F)cc2F)CC1	inconclusive: 35.5 µM [activator, single point]
Cc1ccc([N+](=O)[O-])cc1N/C=C1\CCCCC1=O	active: 3.55 µM
COc1ccc(OC)c(CCNC(=O)c2cc3c(-c4ccccc4F)nn(C)c3s2)c1	inconclusive: 35.5 µM [activator, single point]
CCCCC/C=C\C/C=C\C/C=C\C/C=C\CCCCCC(=O)NCCc1ccc(O)c(O)c1	inconclusive: 31.6 µM [activator, single point]
O=S(=O)(Nc1cccc2ncccc12)c1cccs1	inconclusive: 5.62 µM [activator, single point]
Cc1ccc(C)c(NC(=O)N2CC=C(c3c[nH]c4ccccc34)CC2)c1	inconclusive: 25.1 µM [activator, single point]
C=CCN1C(=NC(=O)CCC)SC2CS(=O)(=O)CC21 (configuration not stated)	inconclusive: 31.6 µM [activator, single point]
CN(C)c1ccc(/C=C2/C(=O)Nc3ccccc32)cc1	inconclusive: 35.5 µM [activator, single point]

Reference: PubChem BioAssay AID1865 (National Center for Advancing Translational Sciences (NCATS), 2009)
